These are yes or no findings as the source states them, for the method shown. For some assays here: Binding seen in cells or lysates may run through a third protein. Some entries that bind do so weakly or less than the wild type. For some assays here: Tags and fused reporters may be left off the sequences shown.

In PMC9280432 one finds binding data, which are given here for four molecules.

In experiment [1] the target is T1, RopGEF7-ΔN (N-terminal deleted fragment, aa 60-546) in pGBKT7 (Arabidopsis) (UniProt Q9LZN0).
T1 sequence: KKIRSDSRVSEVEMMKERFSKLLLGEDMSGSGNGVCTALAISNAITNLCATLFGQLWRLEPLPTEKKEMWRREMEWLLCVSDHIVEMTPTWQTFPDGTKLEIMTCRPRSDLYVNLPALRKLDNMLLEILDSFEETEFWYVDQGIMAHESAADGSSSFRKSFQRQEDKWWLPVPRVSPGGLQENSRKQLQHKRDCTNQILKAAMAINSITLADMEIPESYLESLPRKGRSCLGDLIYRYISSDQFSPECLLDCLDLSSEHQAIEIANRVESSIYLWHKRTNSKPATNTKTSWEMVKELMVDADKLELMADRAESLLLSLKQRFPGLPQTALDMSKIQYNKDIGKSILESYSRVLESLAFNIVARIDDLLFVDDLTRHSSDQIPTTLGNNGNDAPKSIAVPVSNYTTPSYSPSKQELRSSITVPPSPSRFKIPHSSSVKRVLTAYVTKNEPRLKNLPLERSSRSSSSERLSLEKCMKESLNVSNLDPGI
Briefly: two-hybrid; direct assay: bait (pGBKT7) and prey (pGADT7) co-transformed by pairs into yeast AH109; SD/-Trp-Leu at 28°C for 3 days, then SD/-Trp-Leu-Ade-His.

The target of experiment [2] is T2, RopGEF6, yeast two-hybrid construct (Arabidopsis) (UniProt Q9M056).
T2 sequence: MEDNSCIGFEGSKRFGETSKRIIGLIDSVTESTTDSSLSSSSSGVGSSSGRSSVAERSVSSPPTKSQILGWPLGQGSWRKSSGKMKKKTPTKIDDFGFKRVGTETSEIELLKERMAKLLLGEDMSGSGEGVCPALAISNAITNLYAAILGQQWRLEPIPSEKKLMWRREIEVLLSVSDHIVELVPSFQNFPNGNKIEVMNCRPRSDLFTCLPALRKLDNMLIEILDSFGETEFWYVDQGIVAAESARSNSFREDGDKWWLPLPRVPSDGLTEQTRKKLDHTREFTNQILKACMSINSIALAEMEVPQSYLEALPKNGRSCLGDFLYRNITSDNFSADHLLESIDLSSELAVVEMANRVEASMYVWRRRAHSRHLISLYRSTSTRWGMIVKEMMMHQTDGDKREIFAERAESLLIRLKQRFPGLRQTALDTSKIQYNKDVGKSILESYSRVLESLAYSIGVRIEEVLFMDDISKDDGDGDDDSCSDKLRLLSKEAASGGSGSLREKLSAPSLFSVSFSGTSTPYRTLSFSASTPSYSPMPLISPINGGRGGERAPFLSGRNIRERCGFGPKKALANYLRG
The description is as above.

Experiment [3] deals with T3, RopGEF4, yeast two-hybrid construct (Arabidopsis) (UniProt Q0WNP7).
T3 sequence: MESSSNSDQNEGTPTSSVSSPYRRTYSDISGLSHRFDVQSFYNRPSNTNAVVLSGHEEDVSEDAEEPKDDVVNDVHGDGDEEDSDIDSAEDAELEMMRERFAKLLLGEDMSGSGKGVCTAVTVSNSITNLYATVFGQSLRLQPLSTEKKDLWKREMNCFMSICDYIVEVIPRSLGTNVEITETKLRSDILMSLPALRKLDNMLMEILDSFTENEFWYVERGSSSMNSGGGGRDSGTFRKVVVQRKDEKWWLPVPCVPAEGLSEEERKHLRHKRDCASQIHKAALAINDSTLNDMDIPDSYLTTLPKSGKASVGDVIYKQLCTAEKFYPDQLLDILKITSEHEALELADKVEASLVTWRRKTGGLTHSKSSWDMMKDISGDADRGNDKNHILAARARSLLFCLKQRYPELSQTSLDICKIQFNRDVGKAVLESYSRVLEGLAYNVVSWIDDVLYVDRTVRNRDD
The description is as above.

The target in experiment [4] is T4, RopGEF7-C (C-terminal fragment, aa 448-546) in pGBKT7 (Arabidopsis) (UniProt Q9LZN0).
T4 sequence: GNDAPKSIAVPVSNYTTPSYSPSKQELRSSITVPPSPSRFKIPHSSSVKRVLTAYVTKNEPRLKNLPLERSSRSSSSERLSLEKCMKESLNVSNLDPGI
The description is as above.

The target in experiment [5] is T5, RopGEF7-PRONE (PRONE domain, aa 60-447) in pGBKT7 (Arabidopsis) (UniProt Q9LZN0).
T5 sequence: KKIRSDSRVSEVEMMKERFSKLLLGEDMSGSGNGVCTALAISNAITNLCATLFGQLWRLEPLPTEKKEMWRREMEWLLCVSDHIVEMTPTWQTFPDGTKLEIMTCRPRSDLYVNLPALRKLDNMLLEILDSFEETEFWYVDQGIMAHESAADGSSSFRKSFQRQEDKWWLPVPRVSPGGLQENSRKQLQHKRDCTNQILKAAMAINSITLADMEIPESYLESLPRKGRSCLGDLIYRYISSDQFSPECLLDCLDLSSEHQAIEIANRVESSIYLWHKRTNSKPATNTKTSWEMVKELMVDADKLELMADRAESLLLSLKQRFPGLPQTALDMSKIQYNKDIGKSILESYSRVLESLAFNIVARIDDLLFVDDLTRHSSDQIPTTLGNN
The description is as above.

Experiment [6] concerns the target T6, RopGEF7-CDS (full-length RopGEF7) in pGBKT7 (Arabidopsis) (UniProt Q9LZN0).
T6 sequence: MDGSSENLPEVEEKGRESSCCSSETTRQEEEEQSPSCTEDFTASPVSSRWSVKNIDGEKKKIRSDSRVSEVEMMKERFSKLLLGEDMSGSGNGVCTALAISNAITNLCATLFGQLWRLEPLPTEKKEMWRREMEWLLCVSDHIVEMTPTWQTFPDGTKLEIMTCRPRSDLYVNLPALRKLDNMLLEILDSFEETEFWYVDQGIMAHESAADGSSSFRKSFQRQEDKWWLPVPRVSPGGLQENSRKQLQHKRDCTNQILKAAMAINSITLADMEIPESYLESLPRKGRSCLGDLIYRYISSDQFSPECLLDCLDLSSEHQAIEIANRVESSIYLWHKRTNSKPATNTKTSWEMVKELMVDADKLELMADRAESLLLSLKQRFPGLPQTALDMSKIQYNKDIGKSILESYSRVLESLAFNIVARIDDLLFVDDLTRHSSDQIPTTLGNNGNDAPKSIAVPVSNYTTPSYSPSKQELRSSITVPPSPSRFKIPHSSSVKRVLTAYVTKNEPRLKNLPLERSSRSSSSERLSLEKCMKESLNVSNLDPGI
The description is as above.

The target of experiment [7] is T7, RopGEF1, yeast two-hybrid construct (Arabidopsis) (UniProt Q93ZY2).
T7 sequence: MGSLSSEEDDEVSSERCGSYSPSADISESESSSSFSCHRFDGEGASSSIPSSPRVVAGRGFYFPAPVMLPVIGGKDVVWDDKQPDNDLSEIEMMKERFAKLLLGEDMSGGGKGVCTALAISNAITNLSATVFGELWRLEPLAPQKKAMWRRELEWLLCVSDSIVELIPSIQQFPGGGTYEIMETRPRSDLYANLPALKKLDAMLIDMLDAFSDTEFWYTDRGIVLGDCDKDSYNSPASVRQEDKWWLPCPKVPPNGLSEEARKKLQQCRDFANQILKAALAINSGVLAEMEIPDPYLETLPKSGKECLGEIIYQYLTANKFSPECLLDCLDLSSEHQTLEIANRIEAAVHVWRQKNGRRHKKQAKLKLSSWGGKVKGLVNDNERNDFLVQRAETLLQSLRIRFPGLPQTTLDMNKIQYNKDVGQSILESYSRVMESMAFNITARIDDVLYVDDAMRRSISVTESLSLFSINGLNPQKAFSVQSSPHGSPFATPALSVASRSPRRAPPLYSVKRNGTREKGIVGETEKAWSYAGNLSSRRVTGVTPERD
The description is as above.

Experiment [8] deals with T8, cYFP-RopGEF7 (Arabidopsis) (UniProt Q9LZN0).
T8 sequence: T6 sequence
Briefly: split reporter; BiFC: nYFP-eIF4E1 and cYFP-RopGEF7 co-transformed into Arabidopsis protoplasts; YFP signal by microscopy.

Experiment [9] concerns the target T9, GST-eIF4E1 (recombinant GST-tagged eIF4E1) (Arabidopsis) (UniProt O23252).
T9 sequence: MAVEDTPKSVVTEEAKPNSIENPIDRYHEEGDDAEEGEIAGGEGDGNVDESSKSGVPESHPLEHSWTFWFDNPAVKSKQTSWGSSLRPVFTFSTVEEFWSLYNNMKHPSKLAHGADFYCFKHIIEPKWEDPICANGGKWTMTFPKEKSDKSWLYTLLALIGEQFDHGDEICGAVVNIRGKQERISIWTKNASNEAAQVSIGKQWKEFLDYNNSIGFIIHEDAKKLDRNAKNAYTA
The experiment is described as follows: pull-down; purified GST-eIF4E1 as bait mixed with YFP-RopGEF7 in total plant protein of 35Spro:YFP-RopGEF7 plants (lines L1, L11), 4°C for 2 h; detection with GFP antibody; only the target purified.

B1: eIF4E1 (eukaryotic translation initiation factor 4E1), cDNA in pGADT7 for the direct yeast two-hybrid assay (protein, UniProt O23252 1-235)
chain: T9 sequence
Consider B1, for which the binding result in [1] is listed as “binds”; in [2], “no binding”; in experiment [3], “no binding”; in [4], “no binding”; in experiment [5] it was “binds”; in experiment [6] it was “binds”. Moreover, the binding result in [7] is “no binding”.

B2: nYFP-eIF4E1 (protein, UniProt O23252 1-235)
chain: T9 sequence
On to B2, for which the binding entry in experiment [8] is listed as “binds”.

B3: YFP-RopGEF7 (from 35Spro:YFP-RopGEF7 transgenic plants) (protein, UniProt Q9LZN0 1-546)
chain: T6 sequence
Turning to B3, in experiment [9], the binding result is “binds”.

B4: eIF(iso)4E, yeast two-hybrid construct (protein, UniProt O04663 1-198)
chain: MATDDVNEPLPAAAELPATEAEKQPHKLERKWSFWFDNQSKKGAAWGASLRKAYTFDTVEDFWGLHETIFQTSKLTANAEIHLFKAGVEPKWEDPECANGGKWTWVVTANRKEALDKGWLETLMALIGEQFDEADEICGVVASVRPQSKQDKLSLWTRTKSNEAVLMGIGKKWKEILDVTDKITFNNHDDSRRSRFTV
On to B4, for which the figures for the binding result in experiment [5] and in experiment [6] were “binds” and “binds weakly”, respectively.
